Results reported in patent US20230203052A1, “ACYCLIC CUCURBITURILS, METHODS OF MAKING SAME, AND USES THEREOF” (University of Maryland, College Park, priority 2020, published 2023).

Legend:
[1] = ITC binding of guests to host 1 (direct or competitive titration); settings: 20 mM sodium phosphate buffered H2O, pH 7.4, 25° C.; direct or competitive ITC per footnote
[2] = taken from the literature; cited from earlier work
hERG ion channel = hERG ion channel (Homo sapiens, UniProt Q12809); assay: hERG ion channel inhibition, QPatch HTX patch clamp in HEK-293
HEK293 cells [3] = assay: AK (Toxilight) cell death assay, HEK293; type: cell-based, human; settings: HEK293, 24 h incubation, up to a concentration of 1 mM
Procedure: (§1) To test the Cytotoxicity and Cell Viability of the above compounds we used two different assays: an MTS (CellTiter 96 AQueous Kit®) assay that measures cellular metabolism, and the AK (Toxilight® BioAssay Kit) assay that measures cell death through release of the cytosolic enzyme adenylate kinase into the supernatant. Both assays were performed with two different cell lines. HEK293 and Hep G2 cells, are frequently used in drug toxicity studies. HEK293, a human kidney cell line, is used to evaluate the effect of the drug on the renal system and Hep G2, a human hepatocyte cell line, is used to assess the response of liver cells where drugs are metabolized. The MTS and AK assays for both cell lines were conducted after 24 h of incubation with the compounds at concentrations of 0.01 mM, 0.03 mM, 0.1 mM, 0.3 mM, and 1 mM. Eight technical replicates were designated for untreated cells and four technical replicates were designated for the cells treated with each compound and staurosporine (apoptosis inducer).
(§2) The collected absorbance and relative luminescence data were normalized to percent cell viability (MTS) and percent cell death (AK) using equations 1 and 2:
% cell death=(RLU samples/Average RLU Distilled water)×100 Eq. 2: […]

HEK293 cells [4] = assay: MTS (CellTiter 96 AQueous) cell viability assay, HEK293; type: cell-based, human; settings: HEK293, 24 h incubation, up to a concentration of 0.3 mM
Procedure: as §1, §2
% cell viability=(Abs sample/Average Abs UT)×100 Eq. 1: […]

hERG ion channel, sequence (Q12809 whole entry): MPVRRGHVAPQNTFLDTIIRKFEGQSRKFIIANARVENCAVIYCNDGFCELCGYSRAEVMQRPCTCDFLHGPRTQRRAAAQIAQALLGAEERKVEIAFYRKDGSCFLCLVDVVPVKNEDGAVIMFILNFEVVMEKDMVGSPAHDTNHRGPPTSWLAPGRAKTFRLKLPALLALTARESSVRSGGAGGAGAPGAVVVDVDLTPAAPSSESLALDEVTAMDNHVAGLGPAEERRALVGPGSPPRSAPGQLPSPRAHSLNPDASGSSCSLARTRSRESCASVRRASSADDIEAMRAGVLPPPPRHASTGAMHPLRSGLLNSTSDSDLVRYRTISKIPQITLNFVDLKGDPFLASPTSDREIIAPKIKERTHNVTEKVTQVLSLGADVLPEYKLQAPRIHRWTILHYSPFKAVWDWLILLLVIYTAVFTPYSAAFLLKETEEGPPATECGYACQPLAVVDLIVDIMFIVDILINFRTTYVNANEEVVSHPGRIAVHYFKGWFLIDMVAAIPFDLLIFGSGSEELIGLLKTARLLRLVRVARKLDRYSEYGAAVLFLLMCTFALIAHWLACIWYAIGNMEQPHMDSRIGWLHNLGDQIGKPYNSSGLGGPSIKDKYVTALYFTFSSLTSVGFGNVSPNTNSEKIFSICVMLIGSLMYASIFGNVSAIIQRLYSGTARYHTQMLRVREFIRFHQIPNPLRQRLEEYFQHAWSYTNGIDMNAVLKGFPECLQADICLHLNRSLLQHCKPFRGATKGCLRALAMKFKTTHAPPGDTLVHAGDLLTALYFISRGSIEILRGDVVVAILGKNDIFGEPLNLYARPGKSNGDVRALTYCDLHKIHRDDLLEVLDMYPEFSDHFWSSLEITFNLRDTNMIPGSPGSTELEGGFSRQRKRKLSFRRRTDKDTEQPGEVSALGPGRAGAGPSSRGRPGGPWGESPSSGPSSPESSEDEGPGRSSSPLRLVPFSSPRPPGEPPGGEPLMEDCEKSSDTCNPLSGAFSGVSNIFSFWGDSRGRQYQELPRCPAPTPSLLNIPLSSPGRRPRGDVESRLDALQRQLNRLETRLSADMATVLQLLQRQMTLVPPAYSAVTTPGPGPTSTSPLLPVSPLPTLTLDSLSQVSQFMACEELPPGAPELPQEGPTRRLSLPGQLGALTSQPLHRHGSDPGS

Ka of host·guest complex of 1 [1] | SMILES | Ka of host·guest complex of M1 [2] | hERG ion channel inhibition (in words) (hERG ion channel; 0.008 μM to 25 μM, listed as M0) | pIC50 (hERG ion channel; read-out: hERG IC50, six concentrations 0.008 μM to 25 μM, HEK-293 expressing hERG) | Cytotoxicity (cell death) (HEK293 cells [3]) | Cell tolerance (cell viability) (HEK293 cells [4])
532000 M⁻¹ | COc1ccc(C[C@@H]2c3cc(OC)c(OC)cc3CC[N@+]2(C)CCC(=O)OCCCCCOC(=O)CC[N@@+]2(C)CCc3cc(OC)c(OC)cc3[C@H]2Cc2ccc(OC)c(OC)c2)cc1OC [guest 21, cisatracurium] | 970000 M⁻¹ |  |  |  | 
 | C[C@]12N3Cc4c(OS(=O)(=O)[O-])ccc(OS(=O)(=O)[O-])c4CN1C(=O)N1CN4C(=O)N5CN6C(=O)N7CN8C(=O)N9Cc%10c(OS(=O)(=O)[O-])ccc(OS(=O)(=O)[O-])c%10CN%10C(=O)N(CN%11C(=O)N(CN%12C(=O)N(CN(C3=O)[C@]12C)[C@@H]4[C@H]%125)[C@@H]6[C@H]%117)[C@]8(C)[C@@]9%10C.[Na+].[Na+].[Na+].[Na+] [host 1] |  | does not inhibit the hERG channel | < 4.60 | low cytotoxicity | high cell tolerance

pIC50: −log10 of the molar value.
